In PubChem BioAssay AID1345083 (National Center for Advancing Translational Sciences (NCATS), 2018):
Several values for one entry are separate records, joined by “and”; a condition that tells them apart may be missing. Equal values may be shown once. Out of some 94,000 compounds screened, about 6,200 (6.6%) were called active. Inconclusive means that the source gave no clear call. Such entries were picked first, then a sample of the others. Calls follow the shape of the dose curve; as a rule, active = well fitted inhibition curve with a large enough effect; inconclusive = small, poorly fitted or top-dose-only effect; inactive = flat fitted curve, though single readings scatter. Potencies beside an inconclusive call are fits to weak or partial responses and may not hold up.

Assay: Cytotoxic Profiling in HEK 293 Cell Line of Diverse Libraries Using Quantitative High-Throughput Screening; also: nearly all actives have a fitted effect of over 60% in size
Details: HEK 293 viability, ATP luminescence (CellTiter-Glo), 48-72 h; series mostly up to 115 µM
In short: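 Cytotoxicity was scored by loss of ATP-coupled luminescence (CellTiter-Glo) in HEK 293 cells. Compound treatment ran 48 or 72 hr at 37 degree Celsius, 5% CO2, 95% humidity.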
Potency is read from the fitted curve at half-maximal effect; tags tell the direction and shape of the fitted curve.

Row | Compound | Potency
1 | CN(C(=O)Cn1cccc1-c1nc(-c2ccc(F)cc2)no1)c1ccccc1 | inconclusive: 44.7 µM [inhibitor, partial curve, poor fit]
2 | CN1CCC(NC(=O)Cc2c[nH]c3ncc(-c4ccccc4)cc23)CC1 | inconclusive: 126 µM [inhibitor, single point]
3 | O=C(NCCN[S+](=O)([O-])c1cccc(C(F)(F)F)c1)c1ccc(-c2cccc(C(F)(F)F)c2)cc1 | active: 39.8 µM
4 | O=C(Nc1cc(C2CC2)nn1-c1ccccc1)c1ccc(F)cc1 | inconclusive: 112 µM [inhibitor, partial curve, poor fit]
5 | CN1CCCCCCN(C(=O)c2ccc3ncccc3c2)[C@H]2CCC[C@H]2C1=O | inconclusive: 89.1 µM [inhibitor, single point]
6 | COc1ccccc1OCC(=O)c1ccc2c(c1)N(CCCC(=O)NCC1CCCO1)C(=O)CO2 (configuration not stated) | inconclusive: 100 µM [inhibitor, single point]
7 | COc1ccc(CNC(=O)N2CCC(c3noc(-c4ccccc4)n3)C2)cc1 (configuration not stated) | active: 44.7 µM
8 | CC(C)n1cc(-c2nc3cc(S(=O)(=O)N4CCCC4)ccc3n2C)cn1 | inconclusive: 50.1 µM [inhibitor, partial curve, poor fit]
9 | CNC(=O)[C@@H]1CN(C(=O)c2ccc(OC)nc2)C[C@H]1COC | inconclusive: 100 µM [inhibitor, single point]
10 | COc1ccccc1CNC(=O)c1ccc2c(c1)N(C)C1CCCN1C2=O (configuration not stated) | inconclusive: 79.4 µM [inhibitor, single point]
11 | O=C(NC1CCN(c2ccnc3ccnn23)C1)c1cc(F)ccc1Br (configuration not stated) | inconclusive: 31.6 µM [inhibitor, full curve]
12 | CCOc1cc(=O)n2c(c1C(=O)Nc1cccc(Cl)c1)CCCC2 | inactive
13 | Cn1ncc2c(C(=O)Nc3cccnc3)cc(-c3ccccc3F)nc21 | inconclusive: 56.2 µM [inhibitor, partial curve, poor fit]
14 | CC(C)S(=O)(=O)c1ncc(CN(CCO)Cc2ccccc2)n1CCc1ccccc1 | inconclusive: 25.1 µM [inhibitor, full curve]
15 | COc1ccc(C(=O)N2CCC3(CC2)OC(=O)N(Cc2ccc(O)cc2)C3(C)c2ccccc2)cc1 (configuration not stated) | inconclusive: 79.4 µM [inhibitor, partial curve]
16 | CC1(C(=O)N2CCCC(CCc3ccc(F)c(F)c3)C2)CC1 (configuration not stated) | inconclusive: 39.8 µM [inhibitor, partial curve, poor fit]
17 | Cc1ccc(-c2c(C(=O)NCc3cccc(C(F)(F)F)c3)nc3sccn23)cc1 | active: 22.4 µM
18 | COc1ccc(-c2cnc(NCc3ccccc3)c3c2CCO3)cc1 | inconclusive: 50.1 µM [inhibitor, full curve]
19 | COCCNC(=O)C[C@@H]1C[C@@H](C(C)C)[C@H](CNS(=O)(=O)c2ccccc2)C=C1C | inactive
20 | COc1ccccc1C(=O)NCC1Cn2cccc2C(=O)N1Cc1cccnc1 (configuration not stated) | inactive
21 | CS(=O)(=O)N1CC2(CCN(CC3CCCCC3)CC2)Cc2ccccc21 | inconclusive: 89.1 µM [inhibitor, single point]

Row | Compound | Potency
22 | Cn1cnc(S(=O)(=O)N2CCCCC2c2noc(COCc3ccc(F)cc3)n2)c1 (configuration not stated) | inconclusive: 100 µM [inhibitor, single point]
23 | COc1ccc(C(=O)N2CCc3ccc(C(=O)NC4CCCCC4)cc32)cc1 | inconclusive: 44.7 µM [inhibitor, partial curve, poor fit]
24 | CCn1ncc(N2CCC(NC(=O)Cc3cccc(F)c3)CC2)cc1=O | inactive
25 | Cc1ccc2nc(C3CCN(Cc4ccc(C#N)cc4)CC3)[nH]c(=O)c2c1 | inactive and inconclusive: 31.6 µM [inhibitor, partial curve]
26 | CN(C)c1ccc(CN(C)C2CCc3ccccc3C2)cc1 (configuration not stated) | inconclusive: 100 µM [inhibitor, partial curve, poor fit]
27 | CN(Cc1ccccc1)C(=O)Cc1ccc(N(Cc2cccc(F)c2)C(=O)c2ccco2)cc1 | inconclusive: 56.2 µM [inhibitor, partial curve, poor fit]
28 | O=C(Cc1cccc(Cl)c1)N1CCN(C(=O)c2nc3cccnc3n(Cc3ccccc3)c2=O)CC1 | inconclusive: 56.2 µM [inhibitor, partial curve, poor fit]
29 | COCCN1CC(CO)C2(CCN(Cc3cnn(C(C)C)c3)CC2)C1 (configuration not stated) | inconclusive: 50.1 µM [inhibitor, partial curve, poor fit]
30 | O=C(NCc1ccc(C(F)(F)F)cc1)c1nc2sccn2c1Br | inconclusive: 50.1 µM [inhibitor, partial curve, poor fit]
31 | CC(C)N1C(=O)CO[C@H]2CCN(Cc3ccncc3Cl)CC[C@@H]21 | inconclusive: 100 µM [inhibitor, partial curve, poor fit]
32 | COc1ccc(-c2noc([C@@H]3CCCN3C(=O)c3cccc(F)c3)n2)cc1OC | inconclusive: 89.1 µM [inhibitor, single point]
33 | O=[S+]([O-])(NC1CCN(c2nc3ncccc3o2)C1)c1cccc(C(F)(F)F)c1 (configuration not stated) | inactive
34 | Cc1cc2c(-c3cccc(S(C)(=O)=O)c3)nc(-c3c(C)noc3C)cc2[nH]1 | inconclusive: 22.4 µM [inhibitor, partial curve, poor fit]
35 | O=C(Cc1c[nH]c2ncc(-c3ccncc3)cc12)NCc1cccnc1 | inconclusive: 100 µM [inhibitor, partial curve, poor fit]
36 | COc1ccc(NC(=O)Cn2c(=O)n(-c3ccc(F)cc3)c(=O)c3c2cc(C)n3C)cc1OC | inconclusive: 39.8 µM [inhibitor, full curve, poor fit]
37 | Cn1nc(C(F)(F)F)c2cc(C(=O)N3CCC4(CCCO4)CC3)sc21 | inactive
38 | O=C(NCc1ccco1)C1CCc2nc(N3CCN(C(=O)C4CCC4)CC3)sc2C1 (configuration not stated) | inconclusive: 56.2 µM [inhibitor, partial curve, poor fit]
39 | COc1ccccc1CC(=O)NC1CCN(c2cnn(C)c(=O)c2)CC1 | inactive
40 | O=C(Cn1ccn2nc(-c3ccccc3)c(CO)c2c1=O)NCCC1=CCCCC1 | inactive
41 | CC(C)NC(=O)N1CCC(Oc2ccccc2-c2nc(-c3ccccc3)no2)C1 (configuration not stated) | inconclusive: 79.4 µM [inhibitor, partial curve, poor fit]
42 | CCCCCCNC(=O)Cc1csc2nc(C)c(-c3cc(C)n(-c4cccc(C)c4)n3)c(=O)n12 | inconclusive: 56.2 µM [inhibitor, partial curve, poor fit]

Row | Compound | Potency
43 | Cc1ccc(C2c3cc(OCc4nc(C(=O)NC5CC5)co4)ccc3CCN2C(=O)C2CC2)cc1 (configuration not stated) | inconclusive: 8.91 µM [inhibitor, full curve, poor fit]
44 | O=C(c1nnc(CNCc2cccc(F)c2)n1-c1cccnc1)N1CCC[C@@H]1C(c1ccccc1)c1ccccc1 | inconclusive: 56.2 µM [inhibitor, partial curve, poor fit]
45 | CCCN(CCC)C(=O)c1ccc(CN2C(=O)NC3(CCS(=O)(=O)CC3)C2=O)cc1 | inactive
46 | O=C(NC1CCN(Cc2ccc(-c3ccsc3)cc2)C1)c1cccc(Cl)c1 (configuration not stated) | active: 44.7 µM
47 | CCN1CCN(C(=O)c2cc(-c3ccc(OC)cc3)nc3c2cnn3C)CC1 | inactive
48 | COc1ccc(OC)c(-c2nc3ccc(-c4ccc(OC)c(OC)c4OC)cc3o2)c1 | inconclusive: 56.2 µM [inhibitor, partial curve, poor fit]
49 | COc1ccc(CCC(=O)N2CCC(Cc3n[nH]c(C)n3)CC2)cc1 | inactive
50 | Cc1ccc(CN(C)CC(=O)N2CC[C@@](C)(O)[C@@H](O)C2)cc1 | inactive
51 | Cc1ccccc1C(=O)N(C)Cc1ccccc1C(F)(F)F | inconclusive: 112 µM [inhibitor, partial curve, poor fit]
52 | COc1ccccc1C(=O)NC1CCN(c2cc(-c3ccc(Cl)cc3)[nH]n2)CC1 | inconclusive: 50.1 µM [inhibitor, partial curve, poor fit]
53 | CCN1c2cc(C(=O)NCCC3=CCCCC3)ccc2C(=O)N2CCCCCC21 (configuration not stated) | inconclusive: 50.1 µM [inhibitor, partial curve, poor fit]
54 | O=C(NCCc1noc(-c2ccccc2)n1)c1n[nH]c2c1CCCCCC2 | inconclusive: 39.8 µM [inhibitor, full curve]
55 | CC(C)Oc1ccc(CNC(=O)c2noc(-c3ccccc3F)n2)cc1 | inconclusive: 50.1 µM [inhibitor, partial curve, poor fit]
56 | O=C1Nc2ccccc2CN(C/C=C/c2ccccc2)C12CCNC2 (configuration not stated) | inconclusive: 56.2 µM [inhibitor, partial curve, poor fit]
57 | COC(=O)c1ccc(NC(=O)Cn2c(-c3cnccn3)nc(C)c(C)c2=O)cc1 | inactive
58 | CC1(C)[C@H]2CC[C@@H](CNC(=O)c3ccccc3F)[C@@H]1C2 | inconclusive: 100 µM [inhibitor, partial curve, poor fit]
59 | N#Cc1cccc(C(=O)NCc2nnc3ccc(-c4ccc(F)cc4)nn23)c1 | inconclusive: 89.1 µM [inhibitor, single point]
60 | COc1cccc(N2C(=O)NC(=NC3CCCC3)C23CCN(CC2CCCCC2)C3)c1 (configuration not stated) | inconclusive: 50.1 µM [inhibitor, partial curve, poor fit]
61 | CNc1nccc(N2CCC(CC(=O)N3CCN(c4ccccc4C)CC3)CC2)n1 | active: 28.2 µM
62 | O=C1COCC2(CN1Cc1cccc(OC(F)(F)F)c1)CN(C(=O)C1CCOCC1)C2 | inconclusive: 89.1 µM [inhibitor, single point]
